Experimental data taken from PMC4336329 (PLoS ONE, 2015).
The whole screen tested about 310,000 compounds, of which about 2,200 (0.71%) showed an effect of 50% or more. The effect is printed as a negative number. Some of the results follow.

What follows are compounds tested against human ether-à-go-go-related gene (hERG) potassium channel (human, UniProt Q12809) (assay: primary screen, population patch clamp on CHO cells stably expressing hERG).
Sequence of human ether-à-go-go-related gene (hERG) potassium channel (Q12809 whole entry, looked up): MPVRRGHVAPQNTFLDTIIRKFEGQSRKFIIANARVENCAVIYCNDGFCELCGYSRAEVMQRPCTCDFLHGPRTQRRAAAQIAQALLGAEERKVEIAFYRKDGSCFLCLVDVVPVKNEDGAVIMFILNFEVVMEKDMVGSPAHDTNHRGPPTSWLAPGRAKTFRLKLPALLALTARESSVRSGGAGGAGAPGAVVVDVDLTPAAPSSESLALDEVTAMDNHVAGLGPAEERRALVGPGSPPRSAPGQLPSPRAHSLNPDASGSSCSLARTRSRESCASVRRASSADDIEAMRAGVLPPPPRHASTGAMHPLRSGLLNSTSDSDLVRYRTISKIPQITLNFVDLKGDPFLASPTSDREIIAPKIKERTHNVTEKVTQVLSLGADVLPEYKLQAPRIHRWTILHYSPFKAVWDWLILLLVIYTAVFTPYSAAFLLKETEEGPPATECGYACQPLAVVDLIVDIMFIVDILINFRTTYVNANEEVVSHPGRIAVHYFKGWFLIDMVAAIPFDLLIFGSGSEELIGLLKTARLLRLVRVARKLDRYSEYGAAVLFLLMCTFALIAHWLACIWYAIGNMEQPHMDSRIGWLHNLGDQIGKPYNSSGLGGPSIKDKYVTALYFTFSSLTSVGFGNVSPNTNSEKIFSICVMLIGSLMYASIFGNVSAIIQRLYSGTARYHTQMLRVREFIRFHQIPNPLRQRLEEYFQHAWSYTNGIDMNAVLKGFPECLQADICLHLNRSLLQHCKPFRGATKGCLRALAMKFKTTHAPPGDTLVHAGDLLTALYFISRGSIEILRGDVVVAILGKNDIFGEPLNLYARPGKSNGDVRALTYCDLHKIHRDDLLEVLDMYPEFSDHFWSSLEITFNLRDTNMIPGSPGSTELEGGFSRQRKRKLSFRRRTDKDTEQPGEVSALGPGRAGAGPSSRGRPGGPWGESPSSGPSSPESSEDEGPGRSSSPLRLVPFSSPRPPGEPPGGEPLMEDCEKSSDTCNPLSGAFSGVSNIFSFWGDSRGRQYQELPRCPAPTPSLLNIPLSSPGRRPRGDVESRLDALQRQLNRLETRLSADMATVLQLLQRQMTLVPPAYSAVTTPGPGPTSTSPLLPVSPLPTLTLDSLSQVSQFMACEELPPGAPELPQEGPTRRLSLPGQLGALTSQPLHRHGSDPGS

Row | SMILES | hERG current change (%, negative = inhibition) at 1uM [%]
1 | CCN1C(=O)c2ccccc2Sc2ccc(C(=O)NCCC(C)C)cc21 | 8.37
2 | Cc1ccc(C(=O)N2CCC(n3nccc3NC(=O)C3CCOC3)CC2)cc1 (stereo not shown) | 9.71
3 | CCCCC(=O)O | 6.91
4 | Br.CCCCn1c(=N)n(CC(=O)O)c2ccccc21 | 15.9
5 | O=C(NC(=S)Nc1cccc2c(O)cccc12)c1ccccc1[N+](=O)[O-] | 10.7
6 | CCN1CCC[C@H]1CNC(=O)c1cc(S(N)(=O)=O)ccc1OC | -2.47
7 | Cc1cccc2[nH]c(CCNC(=O)C3CCC(=O)N(CCc4cccc(F)c4)C3)nc12 (stereo not shown) | 14
8 | Cc1ccc(S(=O)(=O)Nc2c(C(=O)O)[nH]c3ccccc23)cc1C | 7.92
9 | COC(=O)c1cc(NC(=O)Cc2ccccc2[N+](=O)[O-])ccc1Cl | 0.557
10 | CNS(=O)(=O)c1cccc(C(=O)OCCCOC(=O)c2cccc(S(=O)(=O)NC)c2)c1 | 17.3
11 | O=C(NCc1cn2ccccc2n1)c1ccccc1 | 14.4
12 | CCc1ccc(OC(=O)CN2C(=O)c3ccccc3C2=O)cc1 | 14.8
13 | CC(=O)NNC(=O)c1cc2c3ccccc3n(C)c2s1 | 17.3
14 | Cc1ccc2[nH]c(C)c(CC(=O)NCc3ccccc3)c2c1 | 11.3
15 | CCOc1ccc2nc(NC(=O)CSc3nc4ccccc4c(=O)n3Cc3ccco3)sc2c1 | -7.95
16 | Cc1ccc(OCc2cccc(S(=O)(=O)N(C)C)c2)c([N+](=O)[O-])n1 | 14
17 | CCOC(=O)N1CCN(S(=O)(=O)c2c[nH]c(C(=O)OC)c2)CC1 | 17.1
18 | CC(C)(C)c1ccc(C(=O)NCCC(=O)N2CCN(c3ncccn3)CC2)cc1 | 0.386
19 | CC(C)C1N(C(=O)N(C)C)CCN1S(=O)(=O)c1ccccc1 (stereo not shown) | 16.3
20 | CC(C)(C)N1OC2CC1c1nc3ccccc3n1C2 (stereo not shown) | 17.7

Row | SMILES | hERG current change (%, negative = inhibition) at 1uM [%]
21 | O=S(=O)(NC1=NCCCCC1)c1ccc2sc(NS(=O)(=O)c3ccc4ccccc4c3)nc2c1 | 11
22 | Cc1cc(NCCN(C)C)n2nc(-c3cccs3)cc2n1 | -12.5
23 | Cc1nc2ccccc2n1/N=C/c1ccc([N+](=O)[O-])o1 | -29
24 | COc1ccccc1OCCCOc1cccc(/C=C2\SC(=O)NC2=O)c1 | 14.7
25 | COc1cccc(CNC(=O)CCC2CCCN(C(=O)c3cc(C)on3)C2)c1 (stereo not shown) | 1.15
26 | C=CCOc1c(Br)cc(CNn2nnnc2N)cc1OCC | 10.4
27 | Cc1ccc2nc(SCC(=O)NCCCN3CCCC3=O)[nH]c2c1 | 3.09
28 | CC(C)(C)C(=O)C[n+]1cccc(C(N)=O)c1.[Br-] | 14.2
29 | Cc1cccc(NC(=O)/C(=C/c2cccc([N+](=O)[O-])c2)NC(=O)c2cccs2)c1 | 4.88
30 | Cc1ccc(N(Cc2cc3ccc(C)cc3[nH]c2=O)S(C)(=O)=O)c(C)c1 | 2.89
31 | COc1ccc(-c2nc(CN(CC3CCC(=O)N3)C(C)C)c(C)o2)c(C)c1C (stereo not shown) | 10.4
32 | N/C(=N\OC(=O)CCC1CCCC1)c1ccccc1 | 7.93
33 | C=C(C)c1ccc(C(C)(C)NC(=O)N2CCN(C)CC2)cc1 | -9.43
34 | O=C(Nc1ccccc1)N(CCc1nc2ccccc2[nH]1)C1CCCC1 | 16.7
35 | CN(C)CCn1c(COc2ccccc2)nc2ccccc21.Cl.O | -5.79
36 | CCOC(=O)C(CC)/C(C)=N/NC(=O)c1ccc([N+](=O)[O-])cc1 (stereo not shown) | 3.8
37 | COc1ccc(C(=O)N2CCNC(=O)C2CC(=O)Nc2cc(Cl)ccc2OC)cc1 (stereo not shown) | 9.33
38 | CCN(CC)c1ccc(NC(=O)CN2CCN(c3ccccc3F)CC2)cc1 | 7.06
39 | CCOC(=O)CCc1c(C)nc(SCCCn2c(=O)[nH]c3ccccc32)c(C#N)c1C | 11.4
40 | CCOC(=O)c1c(C)nc2c(c1-c1cc(OC)c(OC)c(OC)c1)C(=O)c1ccccc1-2 | 2.39

Row | SMILES | hERG current change (%, negative = inhibition) at 1uM [%]
41 | CCC1CCC/C1=N\NC(=O)c1ccccc1C (stereo not shown) | 11.4
42 | COC(=O)c1ccc(NC(=O)CSCc2ccccc2)cc1 | -3.42
43 | COc1ccc(N2C(=O)CN(Cc3ccc(OC)c(OC)c3)C2=S)cc1 | 9.48
44 | C#CCn1c(O)c(N=NC(=O)C(O)c2ccccc2)c2ccccc21 (stereo not shown) | -1.22
45 | Cc1cc(SCC(=O)OCC(=O)N(C)C2CCS(=O)(=O)C2)c(C)cc1Br (stereo not shown) | -1.02
46 | Cc1cc(F)ccc1S(=O)(=O)N1CCCOC1CNC(=O)C(=O)NC1CCCCC1 (stereo not shown) | 4.3
47 | N#Cc1c(/N=C/c2cc(Br)cs2)sc2c1CCC2 | 10.4
48 | COc1ccc(S(=O)(=O)NCCCn2ccnc2)cc1Cl | 8.36
49 | CCN(CC)C(=O)COc1ccc(/C(C)=N/NC(=O)c2ccccc2-n2cccc2)cc1 | 12.1
50 | COc1cccc(/C=N/NC(=O)c2cnccn2)c1OC | 10.3
51 | Cn1ccc(=Nc2ccc(NC(=O)c3ccc(N=c4ccn(C)c5ccc([N+](=O)[O-])cc45)cc3)cc2)cc1 | 13.3
52 | CCCCCC(=O)N1CCCC(c2nc(-c3ccc(OC)cc3)no2)C1 (stereo not shown) | 10.8
53 | C=CCOn1c(=O)c(-c2ccccc2)[n+]([O-])c2ccccc21 | 9.99
54 | CCc1c(C)nc(SCc2cccnc2)[nH]c1=O | 4.12
55 | Cc1nc(-c2ccc(C(=O)Nc3cccc(F)c3)cc2)cs1 | 16.2
56 | Cc1cc(C)nc(SCc2cn3ccccc3n2)n1 | 11.5
57 | CCn1c(-c2cc(-c3cc(OC)ccc3OC)nc3ccccc23)n[nH]c1=S | 1.44
58 | N#Cc1c(Cl)nc(N/N=C/c2ccccc2)c(Cl)c1Cl | 9.85
